Assay results taken from the BET-seq Pho4 binding data (Le et al. 2018).
The list shows a part of the results. These are noisy estimates, calculated here from bound and input reads.

Biological target: T1, Pho4 (S. cerevisiae) (UniProt P07270)
T1 sequence: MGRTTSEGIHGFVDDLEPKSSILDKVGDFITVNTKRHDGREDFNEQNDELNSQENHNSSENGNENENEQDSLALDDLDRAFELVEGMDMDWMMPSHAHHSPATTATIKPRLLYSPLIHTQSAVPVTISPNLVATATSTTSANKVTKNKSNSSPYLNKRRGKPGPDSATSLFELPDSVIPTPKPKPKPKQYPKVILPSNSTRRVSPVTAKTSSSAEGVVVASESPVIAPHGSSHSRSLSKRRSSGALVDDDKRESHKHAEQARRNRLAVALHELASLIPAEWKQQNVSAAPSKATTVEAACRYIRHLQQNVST
Assay: relative binding free energy (BET-seq); higher = weaker binding
Settings: reference: library average

Sequence | relative binding free energy
TCGTTCACGTGGGTTG | 0.19 kcal/mol
GGGATCACGTGATTGG | 0.34 kcal/mol
AGGGTCACGTGCCGTG | 0.06 kcal/mol
GCTTACACGTGTGGTT | 0.16 kcal/mol
TATAACACGTGGGTGT | -0.11 kcal/mol
GGCGACACGTGTGGTC | 0.29 kcal/mol
AGTGACACGTGATGTA | 0.1 kcal/mol
GGGGGCACGTGCGCGG | -0.27 kcal/mol
TTCTGCACGTGATGGT | 0.22 kcal/mol
TGGAACACGTGGCGTT | -0.01 kcal/mol
CTGGTCACGTGTTTCA | 0.16 kcal/mol
ATGCGCACGTGGGTTA | -0.2 kcal/mol
AATGTCACGTGTAGGT | 0.14 kcal/mol
GGCTGCACGTGATTTA | 0.29 kcal/mol
CTGGGCACGTGTATCG | -0.06 kcal/mol
GTTAGCACGTGCTTAA | 0 kcal/mol
AAAGGCACGTGCTAGG | -0.18 kcal/mol
GCTTACACGTGGGGGC | 0.02 kcal/mol
ACGTGCACGTGAGGTG | 0.14 kcal/mol
ATGTGCACGTGTCAGG | -0.07 kcal/mol
TTACACACGTGTGGAT | 0.19 kcal/mol
CCGGTCACGTGAAGGG | 0.24 kcal/mol
ATGTTCACGTGACGGC | 0.67 kcal/mol
GTATTCACGTGAAGTA | 0.35 kcal/mol
GGAATCACGTGATGTG | 0.35 kcal/mol
GAGGACACGTGTTTTT | 0.18 kcal/mol

Sequence | relative binding free energy
TTAGGCACGTGTGTAT | -0.06 kcal/mol
CATATCACGTGTGGAT | 0.37 kcal/mol
GTGGTCACGTGTGCGG | 0.14 kcal/mol
TTTTGCACGTGAATCT | 0.05 kcal/mol
TGTCCCACGTGGGTAG | -0.13 kcal/mol
TGTTACACGTGTATCG | -0.04 kcal/mol
ATTTTCACGTGCATTA | 0.19 kcal/mol
GGATTCACGTGAAGCG | 0.53 kcal/mol
TTGTACACGTGCTTAG | 0 kcal/mol
GGAGTCACGTGAGGCG | 0.27 kcal/mol
GAATTCACGTGGGGAG | 0.09 kcal/mol
ACATACACGTGTTTGT | -0.03 kcal/mol
TTGGACACGTGCATTG | 0.08 kcal/mol
ATTGTCACGTGGATGT | 0.17 kcal/mol
GCATACACGTGGTGGT | 0.04 kcal/mol
AGGTACACGTGTTGTA | 0.05 kcal/mol
GTGTCCACGTGTTGCT | 0.01 kcal/mol
AACTGCACGTGATGGT | 0.11 kcal/mol
GTGCTCACGTGGAAGT | 0.19 kcal/mol
TGTCACACGTGTTTCT | 0.11 kcal/mol
GTTGACACGTGAATGG | 0.15 kcal/mol
GAGGCCACGTGGGGGG | -0.24 kcal/mol
AAGTTCACGTGAGGGT | 0.3 kcal/mol
TGGTCCACGTGAGTGC | 0.22 kcal/mol
TGATACACGTGGGTCA | -0.13 kcal/mol
TTTAGCACGTGGGGCT | -0.27 kcal/mol

Sequence | relative binding free energy
GCGTTCACGTGCATGG | 0.29 kcal/mol
GGTTGCACGTGGCTAG | -0.06 kcal/mol
GGATGCACGTGATGGC | 0.15 kcal/mol
TCGTTCACGTGTAAGG | 0.34 kcal/mol
TTCATCACGTGATATT | 0.25 kcal/mol
ATCTGCACGTGTTGTG | 0.09 kcal/mol
TTCGGCACGTGCGGCT | -0.06 kcal/mol
AATTGCACGTGAGGGG | 0.21 kcal/mol
TAGGCCACGTGGAAGG | 0.04 kcal/mol
GGTAACACGTGTTGTG | 0.05 kcal/mol
AGTAACACGTGTAAGA | 0.13 kcal/mol
GGTGACACGTGTTTGC | 0.14 kcal/mol
ATTCTCACGTGAATTG | 0.36 kcal/mol
TTATTCACGTGTGGAT | 0.24 kcal/mol
GTTTTCACGTGCATAG | 0.38 kcal/mol
ATAGACACGTGCGGTG | 0.05 kcal/mol
TTCGTCACGTGGAATT | 0.15 kcal/mol
TTCGTCACGTGCTGGA | 0.1 kcal/mol
CGTGTCACGTGTATTA | 0.01 kcal/mol
AAAGACACGTGAATGT | 0.39 kcal/mol
TGGAACACGTGAGGTA | 0.22 kcal/mol
ATTCTCACGTGTATGG | 0.03 kcal/mol
GACTTCACGTGGAGGG | 0.26 kcal/mol
CGTCGCACGTGGTTTG | -0.1 kcal/mol
GGCTGCACGTGCGGTG | -0.04 kcal/mol
CAGAGCACGTGTTGGT | -0.24 kcal/mol

Sequence | relative binding free energy
GGGCTCACGTGGTTTT | 0.28 kcal/mol
TTAATCACGTGGTGAG | 0.13 kcal/mol
TAACACACGTGTGGGT | -0.04 kcal/mol
GGGGCCACGTGTGCGA | -0.06 kcal/mol
TATCGCACGTGATGAG | 0.06 kcal/mol
TGTGTCACGTGGGTGT | -0.04 kcal/mol
GGGTCCACGTGGATGT | 0.02 kcal/mol
AATTACACGTGGGTAT | -0.07 kcal/mol
CGTTTCACGTGTGTGA | 0.13 kcal/mol
AGGAACACGTGATGTT | 0.09 kcal/mol
TTGAGCACGTGGAAGG | 0.1 kcal/mol
TAGTGCACGTGTGCTG | 0.03 kcal/mol
TCATTCACGTGGAGGA | 0.3 kcal/mol
CCGTGCACGTGTAGGT | 0 kcal/mol
TGTGGCACGTGGTCCT | -0.17 kcal/mol
CGCATCACGTGTCGGG | 0.25 kcal/mol
TGGTACACGTGTAGGA | 0.07 kcal/mol
GATTACACGTGGATTA | 0.27 kcal/mol
AGATGCACGTGTGTAT | 0.02 kcal/mol
GTAAACACGTGGTATA | 0.01 kcal/mol
CCTTGCACGTGGGTGA | -0.08 kcal/mol
ATTTACACGTGTGTTC | 0.2 kcal/mol
AGATACACGTGGTTTA | -0.09 kcal/mol
AGCGTCACGTGGGCTG | -0.23 kcal/mol
TGTTACACGTGAGGGG | 0.26 kcal/mol
TTGAACACGTGATTTA | 0.24 kcal/mol

Sequence | relative binding free energy
TCTGACACGTGAGGGG | 0.17 kcal/mol
AAGATCACGTGAAGGT | 0.33 kcal/mol
CTAGTCACGTGGGTTC | -0.06 kcal/mol
AGTATCACGTGTTGTT | 0.23 kcal/mol
AATGGCACGTGTAACG | 0.04 kcal/mol
ATAAGCACGTGGCGGT | -0.22 kcal/mol
ATAGCCACGTGTTTTT | 0 kcal/mol
GTGAGCACGTGAGTTA | 0.1 kcal/mol
GTGAACACGTGTGTAT | 0.01 kcal/mol
GAGTGCACGTGACTGT | 0.15 kcal/mol
ACTAGCACGTGGATGT | -0.09 kcal/mol
AGTAACACGTGGTGTG | -0.07 kcal/mol
GTTTTCACGTGCTGTT | 0.21 kcal/mol
GTAGTCACGTGGTATA | -0.04 kcal/mol
TTGTGCACGTGTGATC | 0.07 kcal/mol
GATGTCACGTGATTTT | 0.32 kcal/mol
TGCGGCACGTGGTTTA | -0.19 kcal/mol
TTGTGCACGTGTGAGC | 0.13 kcal/mol
TAACGCACGTGGTTTG | -0.22 kcal/mol
AGAGGCACGTGAGCTG | 0.17 kcal/mol
GTTGGCACGTGATTAT | -0.05 kcal/mol
CGGGTCACGTGTAGGT | 0.16 kcal/mol
TGTGTCACGTGAACGA | 0.26 kcal/mol
AGATTCACGTGTTGTG | 0.31 kcal/mol
GTTGGCACGTGGGCAG | -0.16 kcal/mol
TGTGGCACGTGGTCAC | -0.29 kcal/mol

Sequence | relative binding free energy
GCTGTCACGTGGAAGT | 0.16 kcal/mol
AAAAGCACGTGGGTGA | -0.11 kcal/mol
TGATACACGTGTGGCT | 0 kcal/mol
GTGGCCACGTGGGTTC | -0.13 kcal/mol
TTACGCACGTGTTGGC | -0.03 kcal/mol
GTCTTCACGTGAGGTA | 0.48 kcal/mol
GGAAGCACGTGTGGCT | 0.02 kcal/mol
AGATGCACGTGTGGTA | 0.11 kcal/mol
GTCGTCACGTGGTGTA | -0.06 kcal/mol
GTTCGCACGTGAAGGG | 0.24 kcal/mol
CAGTGCACGTGGGGAG | -0.23 kcal/mol
AGTACCACGTGGGTTA | -0.11 kcal/mol
TTGTGCACGTGCGTTA | -0.02 kcal/mol
AGTGGCACGTGCAGGA | -0.08 kcal/mol
GTAGGCACGTGGAGTC | -0.01 kcal/mol
GAATCCACGTGGGGGT | -0.11 kcal/mol
GTGATCACGTGCTTAG | 0.13 kcal/mol
GTGGACACGTGTGGTG | 0.18 kcal/mol
TGGGGCACGTGCCTTT | -0.13 kcal/mol
ATGGGCACGTGCGTGG | -0.17 kcal/mol
TTGGGCACGTGACTTG | 0.11 kcal/mol
AATTTCACGTGGTCAT | 0.21 kcal/mol
TTGCTCACGTGAGAGT | 0.31 kcal/mol
TTTGGCACGTGCTAAG | -0.11 kcal/mol
ACGTCCACGTGGGGTA | -0.08 kcal/mol
CGTTGCACGTGTTTTA | -0.02 kcal/mol

Sequence | relative binding free energy
GGAAGCACGTGGGGCC | -0.12 kcal/mol
ATTCACACGTGTTGGT | 0.15 kcal/mol
ACGGACACGTGTGGTT | 0.1 kcal/mol
TCAAACACGTGTTAGG | 0.14 kcal/mol
TATGACACGTGGTAAA | -0.01 kcal/mol
ATCGGCACGTGAGAGG | 0.14 kcal/mol
GTCGTCACGTGACGTG | 0.24 kcal/mol
CTTTGCACGTGGTTTG | -0.02 kcal/mol
GTACTCACGTGGAGGG | 0.18 kcal/mol
TAGTTCACGTGGGTCA | 0.14 kcal/mol
TTCGGCACGTGTTAGT | -0.03 kcal/mol
ATGATCACGTGAATGT | 0.2 kcal/mol
GTTTGCACGTGTGGTC | 0.24 kcal/mol
GTCGACACGTGATGTG | 0.15 kcal/mol
TGGAGCACGTGAGGAG | 0.25 kcal/mol
GGTTGCACGTGTAGTG | 0.01 kcal/mol
GTTATCACGTGTCGGC | 0.29 kcal/mol
CAGGTCACGTGATAGT | 0.31 kcal/mol
ATTAGCACGTGTGAGT | -0.04 kcal/mol
GTTGTCACGTGTTTGC | 0.19 kcal/mol
ATTAGCACGTGAACGG | 0.13 kcal/mol
AGTTCCACGTGTAGTT | 0.15 kcal/mol
TACAGCACGTGTTATG | 0 kcal/mol
CGGCTCACGTGTTTGT | 0.14 kcal/mol
ATGGTCACGTGAAGCG | 0.29 kcal/mol
AGAGGCACGTGTGAAG | 0.17 kcal/mol

Sequence | relative binding free energy
AGTTGCACGTGATAGA | 0.04 kcal/mol
TGTGACACGTGGGAAT | -0.01 kcal/mol
ATGTGCACGTGGCATG | -0.25 kcal/mol
TGTAGCACGTGATAAG | 0.06 kcal/mol
TAGGGCACGTGCGGGC | -0.27 kcal/mol
GTGGTCACGTGAGGGG | 0.33 kcal/mol
TTCGTCACGTGGCGGA | 0.05 kcal/mol
GTTTCCACGTGTCAGT | 0.12 kcal/mol
AGCGTCACGTGGGCAG | -0.14 kcal/mol
TAATTCACGTGGTTTA | 0.35 kcal/mol
GACTTCACGTGTGGGC | 0.42 kcal/mol
GTGATCACGTGGCGGC | 0.09 kcal/mol
GTAATCACGTGCGGCT | 0.32 kcal/mol
TTTTGCACGTGGGCTG | 0.01 kcal/mol
GTTTGCACGTGAGTCT | 0.34 kcal/mol
GTTCTCACGTGATTAT | 0.23 kcal/mol
TATTCCACGTGCGGGG | 0.01 kcal/mol
TTTATCACGTGTACAG | 0.09 kcal/mol
TCGGGCACGTGTAAGG | 0.11 kcal/mol
TCACGCACGTGTTGGT | -0.05 kcal/mol
ATAGGCACGTGGTATT | -0.1 kcal/mol
TGGGTCACGTGAACGG | 0.31 kcal/mol
GGGGTCACGTGTAGAT | 0.24 kcal/mol
GTCAGCACGTGGGAGG | -0.18 kcal/mol
GGAAGCACGTGGTGGG | -0.21 kcal/mol
TGAAACACGTGTCATT | 0.18 kcal/mol

Sequence | relative binding free energy
TGTGCCACGTGGTCGG | -0.37 kcal/mol
CTGGTCACGTGCTGGT | 0 kcal/mol
GGTGTCACGTGACGGA | 0.37 kcal/mol
TCAGGCACGTGGGGGC | -0.21 kcal/mol
ATTATCACGTGATAGG | 0.28 kcal/mol
GGTGACACGTGATTGC | 0.2 kcal/mol
TGGTGCACGTGTCGAG | 0 kcal/mol
AGTTTCACGTGATTGC | 0.24 kcal/mol
CTTAGCACGTGGGGTC | -0.24 kcal/mol
AGCGACACGTGGTGAT | 0.03 kcal/mol
AGGTGCACGTGTATAA | 0.03 kcal/mol
AGTTGCACGTGTCACG | 0.04 kcal/mol
GGAGTCACGTGGTATT | 0.09 kcal/mol
TTTTTCACGTGGCATT | 0.27 kcal/mol
TGGATCACGTGTGACG | 0.1 kcal/mol
ATTAGCACGTGGAATT | 0.05 kcal/mol
CGGTTCACGTGCTGGG | 0.18 kcal/mol
TGCATCACGTGGGTGA | 0.08 kcal/mol
GGTGGCACGTGTTTGT | -0.02 kcal/mol
CGTCACACGTGGTTGG | 0.08 kcal/mol
ATGGTCACGTGTGCGA | 0.03 kcal/mol
TGCTACACGTGGGAAT | 0.12 kcal/mol
